Assay results from PubChem BioAssay (NCATS).
Inconclusive means that the source gave no clear call. Such entries were picked first, then a sample of the others. For part of these data: No potency is given beside an inconclusive call; the fits are too rough. Active and inactive are the calls of the source. Unless noted, the call rests on the fitted dose curve; in most records, active means well fitted curve in the direction sought with a large enough effect; inconclusive means small, poorly fitted or top-dose-only effect, or another doubt; inactive means no such curve, though single readings can be large; an effect the other way counts as inactive or inconclusive.

Assays:
[1] = target: Cytochrome P450 2D6 (Homo sapiens) (UniProt P10635); assay: Cytochrome P450 family 2 subfamily D member 6 (CYP2D6) small molecule antagonists: luciferase biochemical (cell-free) qHTS assay (AID 1645840; active means well fitted curve in the direction sought with a large enough effect in the repeat runs; inconclusive means weak or mixed curves; inactive means no such curve, though single readings can be large; an effect the other way counts as inactive or inconclusive; further: potency means the concentration at half of the fitted maximal effect; nearly all actives have a fitted effect of over 55% in size)
UniProt P10635, sequence (P10635 whole entry, looked up): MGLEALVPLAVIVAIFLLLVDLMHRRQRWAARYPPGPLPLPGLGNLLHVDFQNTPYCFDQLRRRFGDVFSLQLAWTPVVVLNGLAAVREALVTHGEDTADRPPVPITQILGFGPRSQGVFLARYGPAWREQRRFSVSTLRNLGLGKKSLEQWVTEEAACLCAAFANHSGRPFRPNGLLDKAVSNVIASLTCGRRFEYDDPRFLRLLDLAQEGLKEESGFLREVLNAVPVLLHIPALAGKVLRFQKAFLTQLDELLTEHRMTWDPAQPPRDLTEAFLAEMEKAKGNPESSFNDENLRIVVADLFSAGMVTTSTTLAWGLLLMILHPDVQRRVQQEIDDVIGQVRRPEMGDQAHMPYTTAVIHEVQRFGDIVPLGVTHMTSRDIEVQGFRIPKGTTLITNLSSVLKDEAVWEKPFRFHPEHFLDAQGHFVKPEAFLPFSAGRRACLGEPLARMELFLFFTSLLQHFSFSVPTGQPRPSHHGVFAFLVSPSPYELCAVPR
Procedure, shortened: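 P450-Glo CYP2D6 system: proluciferin substrate converted by enzyme to luciferin, read by luminescence proportional to activity. Enzyme-substrate mix with compound 10 min at room temperature, then NADPH regeneration 1 h before detection reagent.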

[2] = Primary redox qHTS assay for identification of artifact compounds. (AID 1845223); further: potency means the concentration at half of the fitted maximal effect
Procedure, shortened: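 Redox-cycling detection via DTT (250 uM final) oxidation coupled to Amplex Red (25 uM)/HRP (250 mU/mL) in HBSS. 15 min preincubation plus 30 min after DTT, room temperature. Ex/Em 525/598 nm; 4-parameter Hill fit against DMSO and 10 uM DA3003.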

[3] = test system: CAOV3; assay: Primary qHTS to identify gynecologic anti-cancer compounds using libraries of approved drugs and bioactive compounds (AID 1345084); details: Gynecologic cancer cell panel viability, ATPlite luminescence, 48 h; series mostly up to 57.5 µM; further: nearly all actives have a fitted effect of over 55% in size; further: potency means the concentration at half of the fitted maximal effect; on activity change, negative = cytotoxicity: on the % scale 0 is the no-effect control and ±100 the full control effect
Procedure, shortened: (§1)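 Five-point cytotoxicity, 48 h drug exposure at 37 C, 5% CO2, on cells seeded 16 h beforehand. ATP content read by ATPlite luminescence.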

[4] = test system: HeLa; assay: as above; details: Gynecologic cancer cell panel viability, ATPlite luminescence, 48 h; series mostly up to 57.5 µM
Procedure, shortened: as §1

[5] = test system: OV90; assay: as above; details: Gynecologic cancer cell panel viability, ATPlite luminescence, 48 h; series mostly up to 57.5 µM
Procedure, shortened: as §1

[6] = test system: Es-2; assay: as above; details: Gynecologic cancer cell panel viability, ATPlite luminescence, 48 h; series mostly up to 57.5 µM
Procedure, shortened: as §1

[7] = test system: SKOV3; assay: as above; details: Gynecologic cancer cell panel viability, ATPlite luminescence, 48 h; series mostly up to 57.5 µM
Procedure, shortened: as §1

[8] = Primary qHTS for inhibitors of nuclear receptor binding SET domain protein 2 (NSD2) in an RCH-ACV wild type WT cells (2C) (AID 1645877); details: activity change, negative = cell killing: at 44.9 µM (top of the series) unless noted; further: nearly all actives have a fitted effect of over 70% in size; further: potency means the concentration at half of the fitted maximal effect
[9] = test system: CASKI; assay: Primary qHTS to identify gynecologic anti-cancer compounds using libraries of approved drugs and bioactive compounds (AID 1345084); details: Gynecologic cancer cell panel viability, ATPlite luminescence, 48 h; series mostly up to 57.5 µM; further: nearly all actives have a fitted effect of over 55% in size; further: potency means the concentration at half of the fitted maximal effect; on activity change, negative = cytotoxicity: on the % scale 0 is the no-effect control and ±100 the full control effect
Procedure, shortened: as §1

[10] = S16 Schwann cell PMP22 intronic element firefly luciferase assay (AID 624032); further: potency means the concentration at half of the fitted maximal effect; nearly all actives have a fitted effect of over 30% in size
Procedure, shortened: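 Rat S16 Schwann cells stably carrying a PMP22 intronic element-driven Fluc reporter were seeded overnight, then exposed to compounds for 24 h at 37 °C. Luminescence was normalized to PTC124 (positive control) and DMSO (0% activity).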

[11] = qHTS of pediatric cancer cell lines to identify multiple opportunities for drug repurposing: Primary screen for A673 cells (AID 1347092); details: A673 Ewing sarcoma viability, CellTiter-Glo ATP luminescence, 48 h; activity change, negative = cytotoxic: at 46 µM (top of the series); further: potency means the concentration at half of the fitted maximal effect; nearly all actives have a fitted effect of over 45% in size
Procedure, shortened: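 Cells are plated, rested 5 h, dosed by pintool, incubated 48 h, then lysed with CellTiter-Glo and read by luminescence. DMSO is the neutral control; bortezomib at 2.3 uM final is the positive control.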

[12] = qHTS of pediatric cancer cell lines to identify multiple opportunities for drug repurposing: Primary screen for SK-N-MC cells (AID 1347093); details: SK-N-MC viability, CellTiter-Glo luminescence, 48 h; activity change, negative = cytotoxic: at 46 µM (top of the series);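 further: plate controls were DMSO neutral control for no effect and bortezomib for full effect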
Procedure, shortened: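 Metabolically active cells were quantified by ATP-dependent luminescence (CellTiter-Glo, 15 min at room temperature) following 48 h treatment. Cells had been plated at 500-1,000 per well and settled for 5 h beforehand.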

[13] = qHTS of pediatric cancer cell lines to identify multiple opportunities for drug repurposing: Primary screen for SK-N-SH cells (AID 1347098);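 further: DMSO served as neutral control and bortezomib at 2.3 µM as positive control; on the % scale 0 is the no-effect control and ±100 the full control effect; nearly all actives have a fitted effect of over 65% in size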
Procedure, shortened: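 Cells (500-1,000/well) rested 5 h, then received compounds for 48 h; metabolically active cells were measured by CellTiter-Glo luminescence. Final concentrations spanned up to 46 µM (MIPE, 11-point) or 0.59 nM-46 µM (NPC, 8-point) in primary screens, 11-point in follow-ups.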

[14] = qHTS of pediatric cancer cell lines to identify multiple opportunities for drug repurposing: Primary screen for MG 63 (6-TG R) cells (AID 1347105); details: MG 63 (6-TG R) viability, CellTiter-Glo, 48 h; activity change, negative = cytotoxic: at 46 µM (top of the series); further: on the % scale 0 is the no-effect control and ±100 the full control effect; nearly all actives have a fitted effect of over 50% in size
Procedure, shortened: (§2)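 CRCs from 8- or 11-point titrations (lowest final 0.59 nM NPC, 0.78 nM MIPE). Cell viability: CellTiter-Glo after 48 h incubation, 15 min room-temperature development, luminescence imaging.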

[15] = qHTS of pediatric cancer cell lines to identify multiple opportunities for drug repurposing: Primary screen for Rh41 cells (AID 1347108);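 further: luminescence drop marks cytotoxic hits; nearly all actives have a fitted effect of over 70% in size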
Procedure, shortened: as §2

[16] = target: Protein phosphatase 1D (Homo sapiens) (UniProt O15297); assay: RapidFire Mass Spectrometry qHTS Assay for Modulators of WT P53-Induced Phosphatase 1 (WIP1) (AID 1347424);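 further: amount of dephosphorylated VEPPL-S-QETFS peptide product formed by WIP1; potency means the concentration at half of the fitted maximal effect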
UniProt O15297, sequence (O15297 whole entry, looked up): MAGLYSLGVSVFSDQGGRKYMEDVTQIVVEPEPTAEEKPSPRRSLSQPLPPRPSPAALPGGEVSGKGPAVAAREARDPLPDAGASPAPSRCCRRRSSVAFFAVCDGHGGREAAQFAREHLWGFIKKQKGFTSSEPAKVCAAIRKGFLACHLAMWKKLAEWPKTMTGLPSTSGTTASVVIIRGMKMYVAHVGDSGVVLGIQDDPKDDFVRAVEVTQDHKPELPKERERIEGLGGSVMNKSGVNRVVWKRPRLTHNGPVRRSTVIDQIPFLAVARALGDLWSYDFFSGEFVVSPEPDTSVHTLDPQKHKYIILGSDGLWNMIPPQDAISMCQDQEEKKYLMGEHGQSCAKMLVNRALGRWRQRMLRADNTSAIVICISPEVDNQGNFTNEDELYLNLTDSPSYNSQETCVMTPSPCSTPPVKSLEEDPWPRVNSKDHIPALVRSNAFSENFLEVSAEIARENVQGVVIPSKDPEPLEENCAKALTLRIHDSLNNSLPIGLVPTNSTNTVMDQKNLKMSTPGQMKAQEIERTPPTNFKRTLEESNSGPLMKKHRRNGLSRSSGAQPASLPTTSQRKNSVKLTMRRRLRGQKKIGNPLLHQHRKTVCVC
Procedure, shortened: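 Mass-spectrometric measurement of dephosphorylated peptide after a 5 min room-temperature reaction of 10 nM WIP1 with 2 uM phosphopeptide, following 1 h compound preincubation in 30 mM MgCl2 buffer.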

[17] = target: Calcium and integrin-binding protein 1 (Homo sapiens) (UniProt Q99828); assay: Primary qHTS for Identification of Calcium Integrin Binding Protein 1 (CIB1) Competitor (AID 1508620);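 further: GST tagged CIB1 binding a fluorescein labelled alphaIIb integrin peptide tracer; top concentration of the series differs between compounds; on the % scale 0 is the no-effect control and ±100 the full control effect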
UniProt Q99828, sequence (Q99828 whole entry, looked up): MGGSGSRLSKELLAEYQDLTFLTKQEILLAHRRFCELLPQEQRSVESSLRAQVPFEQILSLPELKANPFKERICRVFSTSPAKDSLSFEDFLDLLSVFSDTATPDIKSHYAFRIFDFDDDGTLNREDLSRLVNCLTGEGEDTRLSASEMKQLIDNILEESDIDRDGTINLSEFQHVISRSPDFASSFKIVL
Procedure, shortened: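 Fluorescence polarization competition: CIB1-GST (1 uM final) preincubated with compound 15 min at room temperature, then FITC-labeled alphaIIb peptide (100 nM final) added for another 15 min. Polarization read at Ex 480/Em 540.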

[18] = Primary qHTS for small molecule stabilizers of the endoplasmic reticulum resident proteome: Secreted ER Calcium Modulated Protein (SERCaMP) assay (AID 1508630); details: SH-SY5Y GLuc-SERCaMP (Gaussia luciferase released on ER calcium loss) secretion, thapsigargin, luminescence; activity change, negative = inhibition: at 38.4 µM (top of the series) unless noted; further: potency means the concentration at half of the fitted maximal effect
Procedure, shortened: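 The SH-SY5Y reporter protocol was run at 3 concentrations up to 38.3 uM (primary) or 11 concentrations (follow-up): 16 h compound, 100 nM thapsigargin for 4 h, then extracellular luciferase luminescence.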

[19] = target: Phospholipid hydroperoxide glutathione peroxidase GPX4 (Homo sapiens) (UniProt P36969); assay: Primary qHTS Assay for Inhibitors of Recombinant Selenoprotein Glutathione Peroxidase 4 (GPX4) (AID 1845192); details: activity change, negative = inhibition: at 50 µM (top of the series) unless noted; further: potency means the concentration at half of the fitted maximal effect; nearly all actives have a fitted effect of over 65% in size
UniProt P36969, sequence (P36969 whole entry, looked up): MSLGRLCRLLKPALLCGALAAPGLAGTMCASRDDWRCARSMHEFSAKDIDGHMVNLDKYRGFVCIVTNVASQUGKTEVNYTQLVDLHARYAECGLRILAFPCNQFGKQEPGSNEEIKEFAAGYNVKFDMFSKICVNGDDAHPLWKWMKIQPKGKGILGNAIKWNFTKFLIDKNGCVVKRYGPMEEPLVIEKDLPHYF
Procedure, shortened: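 qHTS, GR-coupled: GPX4 200 nM + cpd 30 min RT → GSH 1 mM, NADPH 0.5 mM, GR 100 nM → CHP 0.5 mM start; fluor 340/450 at t0 and t15 min; no-enzyme wells as control.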

[20] = Drug repurposing screens with cells derived from glioblastoma tumor samples (AID 1345199); details: GBM patient neurospheres viability, ATP luminescence, 48 h; Potency: tumour line A unless noted; activity, negative = cell killing: at 46 µM (top of the series), tumour line A unless noted; further: nearly all actives have a fitted effect of over 40% in size; further: potency means the concentration at half of the fitted maximal effect
Procedure, shortened: (§3)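 Primary testing used CD133+ neurospheres from four GBM patients, seven concentrations, 48 h exposure and ATP-based viability; confirmation added three slower-growing patient lines.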

[21] = test system: astro; assay: as above; details: viability, ATP luminescence, 48 h; activity, negative = cell killing: at 45.9 µM (top of the series) unless noted
Procedure, shortened: as §3

[22] = test system: 7G8; assay: qHTS profiling for inhibitors of Plasmodium falciparum proliferation (AID 504749); further: nearly all actives have a fitted effect of over 60% in size; further: potency means the concentration at half of the fitted maximal effect;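 on activity, negative = inhibition: 0% = DMSO vehicle and full inhibition = artemisinin control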; details: P. falciparum in erythrocytes, SYBR Green DNA, 72 h; series mostly up to 28.7 µM
Procedure, shortened: (§4)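 Quantitative HTS: compounds pinned into medium, infected erythrocytes added (0.3% parasitemia, 2.5% hematocrit), 72 h culture at 37 C under 5% CO2. Saponin/Triton lysis with SYBR Green I, overnight RT, then fluorescence read.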

[23] = test system: ATS95; assay: as above; details: P. falciparum in erythrocytes, SYBR Green DNA, 72 h; series mostly up to 28.7 µM
Procedure, shortened: as §4

[24] = test system: CP266; assay: as above; details: P. falciparum in erythrocytes, SYBR Green DNA, 72 h; activity, negative = inhibition: at 28.7 µM (top of the series)
Procedure, shortened: as §4

[25] = test system: CP286; assay: as above; details: P. falciparum in erythrocytes, SYBR Green DNA, 72 h; series mostly up to 28.7 µM
Procedure, shortened: as §4

[26] = test system: CP305; assay: as above; details: P. falciparum in erythrocytes, SYBR Green DNA, 72 h; series mostly up to 28.7 µM
Procedure, shortened: as §4

[27] = test system: GB4; assay: as above; details: P. falciparum in erythrocytes, SYBR Green DNA, 72 h; series mostly up to 28.7 µM
Procedure, shortened: as §4

[28] = test system: PC15; assay: as above; details: P. falciparum in erythrocytes, SYBR Green DNA, 72 h; series mostly up to 28.7 µM
Procedure, shortened: as §4

[29] = Primary qHTS for inhibitors of nuclear receptor binding SET domain protein 2 (NSD2) in an isogenic RCH-ACV NSD2 p.E1099K mutant (9B) (AID 1645876); details: activity change, negative = viability loss: at 44.9 µM (top of the series) unless noted; further: potency means the concentration at half of the fitted maximal effect; nearly all actives have a fitted effect of over 70% in size
[30] = test system: Tov112D; assay: Primary qHTS to identify gynecologic anti-cancer compounds using libraries of approved drugs and bioactive compounds (AID 1345084); details: Gynecologic cancer cell panel viability, ATPlite luminescence, 48 h; series mostly up to 57.5 µM; further: nearly all actives have a fitted effect of over 55% in size; further: potency means the concentration at half of the fitted maximal effect; on activity change, negative = cytotoxicity: on the % scale 0 is the no-effect control and ±100 the full control effect
Procedure, shortened: as §1
Tags describe the fitted curve by direction and shape.

O=C(NCC(=O)N1CCCC1)Nc1ccc2ccccc2c1
Potency [1]: inconclusive [inhibitor, single point] | Potency [2]: inconclusive [activator, partial curve, poor fit] | Potency [3]: inactive | Potency [4]: inactive | Potency [5]: inactive

CC1(C)CCC2(C(=O)OC3OCC(O)C(O)C3O)CCC3(C)C(=CCC4C5(C)CC(O)C(OC6OC(COC7OCC(O)C(O)C7O)C(O)C(O)C6O)C(C)(C)C5CCC43C)C2C1 (centres undefined)
Potency [2]: inconclusive [activator, partial curve, poor fit] | Potency [3]: inconclusive [rising, single point] | activity change, negative = cytotoxicity [6]: inactive: 5.97% [at 11.6 µM] | activity change, negative = cytotoxicity [7]: inactive: 12.7% [at 11.6 µM]

CC(C)=C1C[C@@]2(C)C(=CC1=O)CC[C@@H](O)[C@@H]2C
Potency [8]: inactive | Potency [2]: inactive | Potency [3]: inconclusive [cytotoxic, partial curve, poor fit] | Potency [9]: inactive

Cc1ccsc1C(=CCCN1CCC[C@@H](C(=O)O)C1)c1sccc1C
Potency [10]: inconclusive [inhibitor, full curve, poor fit] | Potency [11]: inconclusive [cytotoxic, full curve] | Potency [12]: inactive | Potency [13]: inactive | Potency [14]: inactive | Potency [15]: inactive | Potency [16]: inconclusive [inhibitor, single point] | Potency [17]: inactive | Potency [18]: inconclusive [inhibitor, single point] | Potency [19]: inconclusive [inhibitor, single point] | Potency [3]: inactive | Potency [6]: inactive | Potency [20]: inconclusive [inhibitor, partial curve] | Potency [21]: inactive | Potency [22]: inactive | Potency [23]: inactive | Potency [24]: inconclusive [inhibitor, single point] | Potency [25]: inactive | Potency [26]: inconclusive [activator] | Potency [27]: inactive | Potency [28]: inactive

CC1(C)CC[C@]2(C(=O)O)CC[C@]3(C)C(=CCC4[C@@]5(C)C[C@H](O)[C@H](O[C@@H]6OC[C@H](O)[C@H](O)[C@H]6O)[C@@](C)(CO)C5CC[C@]43C)[C@@H]2C1 (some centres undefined)
Potency [29]: inconclusive [inhibitor, single point] | Potency [8]: inconclusive [inhibitor, single point] | Potency [3]: inactive | Potency [6]: inactive | Potency [30]: inactive
